# This is one part of the list.
# Target: T1, OsWOX13 (Oryza sativa, UniProt Q5QMM3 1-267)
# T1 sequence: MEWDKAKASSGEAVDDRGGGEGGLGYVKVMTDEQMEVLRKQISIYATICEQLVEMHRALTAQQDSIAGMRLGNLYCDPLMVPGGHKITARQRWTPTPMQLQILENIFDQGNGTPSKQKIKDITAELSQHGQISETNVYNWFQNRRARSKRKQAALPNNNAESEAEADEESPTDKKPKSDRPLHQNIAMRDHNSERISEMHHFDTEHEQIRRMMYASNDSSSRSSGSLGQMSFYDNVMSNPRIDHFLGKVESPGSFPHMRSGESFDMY
# Assay: protein-binding microarray (RPBM); PBS, 2% BSA, 51.3 ng/ul salmon testes DNA, 50 uM zinc acetate, 200 nM TF, 25 C, 1 h; high values mean tight binding
# Conditions: protein: recombinant; tags: N-terminal polyhistidine and DsRed monomer fusion (pET32a); label: CyDye5-dUTP incorporated in the synthesized complementary strand; 3' TTTTT single-stranded linker to array surface; dsDNA, one strand shown
# In short: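 Binding signal is reported as fluorescence intensity per feature (arbitrary units) from an Axon 4000B scanner. Incubation used 200 nM of each Ni–NTA-purified, N-terminally polyhistidine- and DsRed-fused transcription factor from E. coli BL21-CodonPlus on a double-stranded custom Agilent array for 1 h at 25 °C, with 50 µM zinc acetate in the buffer, followed by washing.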
row,Sequence,binding signal
1,CGTTAAATAAACTGAGGAGAGCTTGGATTTCTCATCTCCACGGAGTCACCTAGTGCAG,7290 fluorescence intensity (a.u.)
2,ATCATGAACTAATTAGGTTTAAAAGATTCGTCTCGCGAATCGGAGTCACCTAGTGCAG,9480 fluorescence intensity (a.u.)
3,CGATCAATTTCCTGGCCCAAACTAGTTTGATGTGTGGTTTCGGAGTCACCTAGTGCAG,3370 fluorescence intensity (a.u.)
4,TTACAATTACAGATACTAATGTATGGGGTAATAGAAAGGTCGGAGTCACCTAGTGCAG,8770 fluorescence intensity (a.u.)
5,TGTTTTGATTTGCCTCTCAAAATAATACGTCCGCATCTCGCGGAGTCACCTAGTGCAG,13500 fluorescence intensity (a.u.)
6,AGAGTAATAATTGTACTCTATTATCAATTTGTTATTGTGTCGGAGTCACCTAGTGCAG,8010 fluorescence intensity (a.u.)
7,ACCGCAATCAATCTCAGGAGCATTTTCTGGCCTAAATAAACGGAGTCACCTAGTGCAG,4830 fluorescence intensity (a.u.)
8,TCTGATTACTAATTGTGGCTGCATATATAGGGTAGGGAGGCGGAGTCACCTAGTGCAG,44700 fluorescence intensity (a.u.)
9,ATTATTTATGTTTAAATTATTATGGTGTTAAGGTAGACACCGGAGTCACCTAGTGCAG,6060 fluorescence intensity (a.u.)
10,CCGTAAATTTGAGAAATTTCGCGCGAATTTACACAAACGCCGGAGTCACCTAGTGCAG,16700 fluorescence intensity (a.u.)
11,TTTAATGGCCAAAATGATAGAGGAATAATTGCAAACCTTGCGGAGTCACCTAGTGCAG,19800 fluorescence intensity (a.u.)
12,CGGAAATCTAAGGTGATTATTGCTTAATTAGCGGAATCTGCGGAGTCACCTAGTGCAG,32100 fluorescence intensity (a.u.)
13,CCTAAATTTAAGAGGGACGATCGAGGCTAAGCTGTTGCACCGGAGTCACCTAGTGCAG,6360 fluorescence intensity (a.u.)
14,AATGTGAAGATTGAATCGCACATTTGTTAGATCGTTGCCTCGGAGTCACCTAGTGCAG,12200 fluorescence intensity (a.u.)
15,TCCTTAATTCGCAAATATACGTGAGATTGCAGTAAAGAAGCGGAGTCACCTAGTGCAG,4820 fluorescence intensity (a.u.)
16,CTTAATACATGTGATTTTGAGGAAAAGTTAGTAAGAGCTCCGGAGTCACCTAGTGCAG,4420 fluorescence intensity (a.u.)
17,TTTTACATGATTGGATGACAAAGCCTATTTCGTTTTGTTGCGGAGTCACCTAGTGCAG,53100 fluorescence intensity (a.u.)
18,ACCAAATATTAATTATGTAGTATATATTTATAGGTAACTACGGAGTCACCTAGTGCAG,4060 fluorescence intensity (a.u.)
19,TAAGAAGGTGATTAGAGGATAATCCACGGGAGGTGCTTGCCGGAGTCACCTAGTGCAG,6070 fluorescence intensity (a.u.)
20,GCTTAATTAAGCTATCTAATGGTTGAAAACAACACGTCGTCGGAGTCACCTAGTGCAG,38400 fluorescence intensity (a.u.)
21,GCAAATAATTACACGACGCTCGAGCATCCAATGCAGTGCTCGGAGTCACCTAGTGCAG,7120 fluorescence intensity (a.u.)

row,Sequence,binding signal
1,GCTTAATTAACACCCCAGGCGGCCGCAGACCAAACCGACCCGGAGTCACCTAGTGCAG,35400 fluorescence intensity (a.u.)
2,GAATAACATAATGATGAGGCCCTGTGCGTTCCCTAAGCTTCGGAGTCACCTAGTGCAG,3630 fluorescence intensity (a.u.)
3,CTGGTGTCTAATTTGTTGCAACAAAATTATTACTACTTCACGGAGTCACCTAGTGCAG,9730 fluorescence intensity (a.u.)
4,CTTTAAATTGTGACATTGTCTTTGCTAGTGGGAAACTGGGCGGAGTCACCTAGTGCAG,17800 fluorescence intensity (a.u.)
5,GCCCCATACATTTCTGATTGCTCCCATACGATTTGGGCGGCGGAGTCACCTAGTGCAG,6160 fluorescence intensity (a.u.)
6,CGGAATTTCTATTATTTCTAAATTGTATACCGGCATGGACCGGAGTCACCTAGTGCAG,6210 fluorescence intensity (a.u.)
7,TTCCTCTAATTAACGTGTCAGCGGTCTAGGTCACGTAAGACGGAGTCACCTAGTGCAG,9900 fluorescence intensity (a.u.)
8,GTGGTTGATTTGACCTTTTACATTGTACAGATGGTATTGGCGGAGTCACCTAGTGCAG,18100 fluorescence intensity (a.u.)
9,CCAATTTAATAAAATAAATTGATACTATAAATATTACAATCGGAGTCACCTAGTGCAG,9090 fluorescence intensity (a.u.)
10,GTGCTCAATTTTAATTGGTTAAAATTATTTCTAGAGCTCTCGGAGTCACCTAGTGCAG,18600 fluorescence intensity (a.u.)
11,TACATGTTATTGATGGTAATGTACACTCGTTGAGTCTTCTCGGAGTCACCTAGTGCAG,10100 fluorescence intensity (a.u.)
12,TAATTAATTTTCACTAATTATTACTGCGTTCTTCATATGCCGGAGTCACCTAGTGCAG,52100 fluorescence intensity (a.u.)
13,AATGATTACAAGAGGCCATAATGTCAATGTTCTTTGCAGGCGGAGTCACCTAGTGCAG,30500 fluorescence intensity (a.u.)
14,TATAATTACTTTTATCTTTCTAGCCTCTATACATTTACATCGGAGTCACCTAGTGCAG,10200 fluorescence intensity (a.u.)
15,GCAATCTTTCATTATCATAATTGGTCGTAGCTTTAATTACCGGAGTCACCTAGTGCAG,8430 fluorescence intensity (a.u.)
16,GCATAACATAAAACAAAATTTCCATTTGTTGGCAACAGCCCGGAGTCACCTAGTGCAG,3430 fluorescence intensity (a.u.)
17,TTGGATTGATCTGTGGCGCTAAATCCGTTCGTCAGGTCTCCGGAGTCACCTAGTGCAG,24900 fluorescence intensity (a.u.)
18,ATCGATAGTGAGACGTTCATGATTGACGAGGATATGTCGGCGGAGTCACCTAGTGCAG,22200 fluorescence intensity (a.u.)
19,AGTTATACTTCTACATCATTAATTTGTTTGACCATACGACCGGAGTCACCTAGTGCAG,3910 fluorescence intensity (a.u.)
20,TAAAATTGAAAATTTGATTGAAATTGGAACGATGTGATGGCGGAGTCACCTAGTGCAG,64500 fluorescence intensity (a.u.)
21,AGGTCAATAAAATTGACTGAACTCTTGTCAAAGTTTAGTTCGGAGTCACCTAGTGCAG,5260 fluorescence intensity (a.u.)

row,Sequence,binding signal
1,TCTAATCACTAGTCACTAGTCTGTCTGCTGAATTGTTCTCCGGAGTCACCTAGTGCAG,4430 fluorescence intensity (a.u.)
2,TATCATGATTAAAGATGAGTCTTTATATTCCTTAGATAAGCGGAGTCACCTAGTGCAG,8610 fluorescence intensity (a.u.)
3,GATTACTAGTACCAATTAGGACATGAATTCCTACACGACACGGAGTCACCTAGTGCAG,3610 fluorescence intensity (a.u.)
4,ATTGGACTAACTGAATGATCAACCGCTTATGGTTTGATGACGGAGTCACCTAGTGCAG,3520 fluorescence intensity (a.u.)
5,ATCAAATAAATTAAACTTTATTTGAATGTTATAATTGTAACGGAGTCACCTAGTGCAG,21300 fluorescence intensity (a.u.)
6,ATATATTTCATCTAACAAAATTAGATGAAATATATCGTAGCGGAGTCACCTAGTGCAG,4310 fluorescence intensity (a.u.)
7,TGCATGATTTATTTATTTATTGATCCATTAAATTTTACCCCGGAGTCACCTAGTGCAG,37700 fluorescence intensity (a.u.)
8,TATCTAATTTAATCAATCCCATGGCTGTGATTGATCAGGACGGAGTCACCTAGTGCAG,51900 fluorescence intensity (a.u.)
9,GATTTAGATTATGTTAATTAACGGATTAGGGTGTTAATTACGGAGTCACCTAGTGCAG,38900 fluorescence intensity (a.u.)
10,GAGTGGTAAATAATTAATTATTACATATTTGTATAAATCGCGGAGTCACCTAGTGCAG,22800 fluorescence intensity (a.u.)
11,GGGCTATAATTAATTGGGAAGATAATATTGATAGAGATATCGGAGTCACCTAGTGCAG,47400 fluorescence intensity (a.u.)
12,TACCTGATACTAAATTGAAGGGGAATTGGCAAGTAGTGCACGGAGTCACCTAGTGCAG,19900 fluorescence intensity (a.u.)
13,GATAAACACAATATACTCAATTTAAATTTTAGCTAACGGCCGGAGTCACCTAGTGCAG,5050 fluorescence intensity (a.u.)
14,CATTAATTATATATACAGGGTTATATAAAACTTAATATCACGGAGTCACCTAGTGCAG,32300 fluorescence intensity (a.u.)
15,CTCTGACCAATCAAATCCTCTCTATATACTCTAGGAGTACCGGAGTCACCTAGTGCAG,4290 fluorescence intensity (a.u.)
16,ACAATGAGATTGTGTCACTGTCAGTCTGTCACTGATCACTCGGAGTCACCTAGTGCAG,3360 fluorescence intensity (a.u.)
17,TCCACATGCTAATTTGTGGTGTCAGATACCTGAATACTCCCGGAGTCACCTAGTGCAG,3970 fluorescence intensity (a.u.)
18,ATCAATCACTCGTTGGTAATTACTACAAGTCAGATGATATCGGAGTCACCTAGTGCAG,32000 fluorescence intensity (a.u.)
19,CAAGTATCAATCACGAGCTGCACAACTTAAGTAGGAGAAACGGAGTCACCTAGTGCAG,9000 fluorescence intensity (a.u.)
20,GGAAATACCTCAGATTGATAGTAGATTCTACAAGATTACACGGAGTCACCTAGTGCAG,9690 fluorescence intensity (a.u.)
21,CTGATTTATGATAGGACATGACACACTACCTCTACATGTTCGGAGTCACCTAGTGCAG,27600 fluorescence intensity (a.u.)

row,Sequence,binding signal
1,GTTAATAAATTTAGGTATATATATATATTTATTAACATCTCGGAGTCACCTAGTGCAG,4570 fluorescence intensity (a.u.)
2,AGAGATGATATCAATTGTTAATACTTTCGGATGTCGGCAACGGAGTCACCTAGTGCAG,3300 fluorescence intensity (a.u.)
3,TGCATTACATAATAATTATCTTATAGCAACATTATACTGGCGGAGTCACCTAGTGCAG,6490 fluorescence intensity (a.u.)
4,CTTAATTAGCCAGATCTAATCCACTGTTCATCTGATGTAGCGGAGTCACCTAGTGCAG,23800 fluorescence intensity (a.u.)
5,ACCAAATTAATTTTATTAAATTAATTATTAAATATATTTTCGGAGTCACCTAGTGCAG,36500 fluorescence intensity (a.u.)
6,TAATAATTTAGGTTATAATAACCTTAAGCCGAATCCTTAACGGAGTCACCTAGTGCAG,8830 fluorescence intensity (a.u.)
7,ACTAATGATCAATCAGTTATCACACAATGTCACCATGTGACGGAGTCACCTAGTGCAG,33000 fluorescence intensity (a.u.)
8,CTATAAATTAATTTTATTTTCTAATAAATCGTTTTAGCTTCGGAGTCACCTAGTGCAG,34700 fluorescence intensity (a.u.)
9,GCAATGATCATGTATAATTTTAGGGTTAGTTCACTGGTAGCGGAGTCACCTAGTGCAG,7150 fluorescence intensity (a.u.)
10,CTTTAACAGCTAGCGATAATCGTTTTCGCTTGCGGTAGTGCGGAGTCACCTAGTGCAG,4740 fluorescence intensity (a.u.)
11,CAGCCCTTAATTGAATTTGGCCCAGCTAGTTCCCGGGCCCCGGAGTCACCTAGTGCAG,30600 fluorescence intensity (a.u.)
12,TTAAAATATTGCTCATTAGATTGGTCGAAACCGGTTATCGCGGAGTCACCTAGTGCAG,3970 fluorescence intensity (a.u.)
13,GTGATTACATTGATAATAATTGATTGAATCAGTTTGTTCTCGGAGTCACCTAGTGCAG,62600 fluorescence intensity (a.u.)
14,CTCGCTTATCTATCAGTCTATCACTTTCCATGGAACTTCCCGGAGTCACCTAGTGCAG,4780 fluorescence intensity (a.u.)
15,GTAGTTAATTGTAAACACTGTACTAAGCAGTATACATTTTCGGAGTCACCTAGTGCAG,20300 fluorescence intensity (a.u.)
16,TATATATATATATATATATATATATATATATTTACTATATCGGAGTCACCTAGTGCAG,5070 fluorescence intensity (a.u.)
17,TCTGATAGGTATTTATAACTCTTGATTTGGCGGACACTTGCGGAGTCACCTAGTGCAG,42100 fluorescence intensity (a.u.)
18,AAATAATTTATACTCAATTAATCATGCGCTAATAGCTACTCGGAGTCACCTAGTGCAG,30700 fluorescence intensity (a.u.)
19,ATTTATAAATTGATTTGGAGCACAGATCGATACGTGCAGACGGAGTCACCTAGTGCAG,53400 fluorescence intensity (a.u.)
20,ATAACTTTTAATTTAAGCTAATTTTATTTCTGCCGGACATCGGAGTCACCTAGTGCAG,19600 fluorescence intensity (a.u.)
21,CAATGCCAGTGATAGATGAACTCTTGATGAGTTAGCTGGTCGGAGTCACCTAGTGCAG,4380 fluorescence intensity (a.u.)
